Screen size: about 48,000 compounds; about 450 (0.94%) were called active. Not shown: some 19% with an inconclusive outcome. The call rests on the fitted dose curve; in most records, active means well fitted inhibition curve with a large enough effect; inconclusive means small, poorly fitted or top-dose-only effect; inactive means no such curve, though single readings can be large or run the other way. The list shows a part of the results.

A short description of the assay: Primary qHTS for Identification of Small Molecule Inhibitors of Huntingtin Promoter Activity. Further: nearly all actives have a fitted effect of over 50% in size. The settings on record: HEK293 HTT promoter firefly luciferase reporter (activity 0% = vehicle and -100% = no light), 24 h; series mostly up to 57.5 µM; activity change, negative = inhibition: at the top concentration. The gist of the method:
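Quantitative HTS used concentration series of up to 57.5 uM final on HEK293 luciferase reporter cells, 24 h at 37 degrees C. Readout was Dual-Glo firefly luminescence.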
On the technique in general: qHTS replaces the single test concentration by a dilution series.
On to `Cc1ccc(C(=O)c2oc3ccccc3c2NC(=O)COc2ccc(C(C)C)cc2)cc1`, for which the “activity change, negative = inhibition” value is inactive: 7.29%.

Regarding `O=C(Nc1ccc(S(=O)(=O)Nc2ncccn2)cc1)c1cc(=O)c2ccccc2o1`, the “activity change, negative = inhibition” value is inactive: -12.5%.

Consider `CCN(CC)C(=O)Cn1c(=O)cc(C)c2c(C)nn(-c3ccc(C)cc3)c21`, for which the “activity change, negative = inhibition” value was inactive: 0%.

Turning to `CC(C)c1nn2c(=O)cc(COC(=O)c3ccc(NC(=O)C4CCCCC4)cc3)nc2s1`, the “activity change, negative = inhibition” value is inactive: -12.6%.

Take `Cc1ccc(CSc2ncc(Cl)c(C(=O)NCc3ccccc3)n2)cc1`: the “activity change, negative = inhibition” value is inactive: 1.33%.

As for `COc1ccc2[nH]c3c(c2c1)CCN(C(=O)c1cccc(Cl)c1)C3c1ccc(F)cc1` (stereo not drawn), the “activity change, negative = inhibition” value is inactive: -23.6%.

For `Cc1nc2sccn2c(=O)c1S(=O)(=O)Nc1cc(Cl)ccc1O`, the “activity change, negative = inhibition” value is inactive: -10.3%.

`CCOC(=O)c1cc(-c2ccc(F)cc2)n(CC(=O)NC2CCCCCC2)c1C`: the “activity change, negative = inhibition” value was inactive: -31.5%.

`Cc1ccc(CN(Cc2ccco2)C(=O)c2ccc(OCC(C)C)cc2)cc1`: the “activity change, negative = inhibition” value is inactive: -21.9%.

For the compound `COc1ccc(NC(=O)c2c(NC(=O)COc3ccccc3)sc3c2CCC(C(C)(C)C)C3)cc1` (stereo not drawn), the “activity change, negative = inhibition” value is inactive: -11.7%.

As for `CCCCN1CCc2nc(Nc3ccc(OC)cc3OC)ncc2C1`, the “activity change, negative = inhibition” value is inactive: -17.1%.

For the compound `Cc1ccc(C)c(N2CCN(C(=O)c3cc4c(=O)n(Cc5ccccc5)ccc4nc3C)CC2)c1`, the “activity change, negative = inhibition” value is inactive: -29.7%.

In the case of `Cc1ccc2c(c1)N(C(=O)N1CCC(C(=O)NCCc3ccc(Cl)cc3)CC1)CC(C)O2` (stereo not drawn), the “activity change, negative = inhibition” value is inactive: -11%.

On to `CCOc1cccc2c1N[C@@H](c1ccc(C(=O)O)cc1)[C@H]1CC=C[C@@H]21`, for which the “activity change, negative = inhibition” value was inactive: 7.17%.

`Cc1ccc(-n2nc(C)c3c(C)c(CCC(=O)NCc4ccccc4Cl)c(C)nc32)cc1C`: the “activity change, negative = inhibition” value was inactive: -7.75%.

With `CCc1ccc(NC(=O)CN2C(=O)C(c3ccc(C)cc3)=NC23CCCCC3)cc1`, the “activity change, negative = inhibition” value is inactive: -28.9%.

In the case of `Cc1cccc(Cn2cccc2CNS(=O)(=O)c2ccccc2F)c1`, the “activity change, negative = inhibition” value is inactive: -8.49%.

Regarding `CCc1ccc(CNC(=O)Cn2nc(C)n3c(cc4cc(C)ccc43)c2=O)cc1`, the “activity change, negative = inhibition” value was inactive: -3.83%.

With `COc1ccc(NC(=O)C(Cc2ccccc2)NS(=O)(=O)c2ccc3c(c2)CCC(=O)N3)c(OC)c1` (stereo not drawn), the “activity change, negative = inhibition” value is inactive: -10.2%.

For the compound `CCCCOc1ccc(C2=NC(c3ccncc3)=Nc3ccc(OCC)cc3N2)cc1`, the “activity change, negative = inhibition” value was inactive: -2.92%.

As for `CCOc1ccccc1CNC(=O)C1CCN(c2nnc(-n3c(C)ccc3C)s2)CC1`, the “activity change, negative = inhibition” value was inactive: -15%.

In the case of `O=C(Cn1c(=O)n(CC2CCC(C(=O)NCCc3ccccc3)CC2)c(=O)c2ccccc21)Nc1ccccc1` (stereo not drawn), the “activity change, negative = inhibition” value was inactive: -2.69%.

Take `Cc1ccc2c(Cl)cc(Cl)c(O)c2n1`: the “activity change, negative = inhibition” value was inactive: 8.28%.

For the compound `Cc1cc(C)n2nc(CNS(=O)(=O)c3ccc(C)c(C)c3)nc2n1`, the “activity change, negative = inhibition” value is inactive: 5.06%.

Take `CC(C)OCCCn1c(SCC(=O)c2ccccc2)nc2c(sc3ccccc32)c1=O`: the “activity change, negative = inhibition” value is inactive: -21.6%.

Turning to `COc1ccc(NC(=O)CSc2nc3nc(C)c(Cc4ccccc4)c(C)n3n2)cc1OC`, the “activity change, negative = inhibition” value was inactive: -25.5%.

With `CCN(CC)CCOC(=O)c1ccc(NC(=O)Cn2ncc3c2-c2cc(C)ccc2OC3)cc1`, the “activity change, negative = inhibition” value was inactive: -23.9%.

Take `CCOc1ccc(C2CC(c3c(O)n(C4CCCCC4)c(=O)[nH]c3=O)=Nc3ccccc3S2)cc1` (stereo not drawn): the “activity change, negative = inhibition” value is inactive: -52.4%.

Take `O=C(Nc1sc2c(c1C(=O)NCc1cccnc1)CCCC2)c1cc(=O)c2ccccc2o1`: the “activity change, negative = inhibition” value is inactive: -7.29%.

In the case of `Cc1ccc2nc(COc3ccccc3NC(=O)C(C)(C)C)cc(=O)n2c1`, the “activity change, negative = inhibition” value is inactive: -7.3%.

For `O=C(CSc1nnc2ccc3ccccc3n12)Nc1ccccc1Cl`, the “activity change, negative = inhibition” value is inactive: 46.5%.

`O=C(Cc1ccc(F)cc1)NCc1ccc2c(c1)CCN2C(=O)c1ccc(F)cc1`: the “activity change, negative = inhibition” value was inactive: -19.7%.

`COc1cccc2c1cc1c(=O)n(CC(=O)NCc3ccc(C)o3)nc(C)n12`: the “activity change, negative = inhibition” value is inactive: -2.9%.

As for `O=C(COc1ccc(Cl)cc1)Nc1ccc2nc(SCC(=O)N3CCCC3)sc2c1`, the “activity change, negative = inhibition” value was inactive: -25.9%.

Consider `Cc1nn(C(=O)c2cccc(Cl)c2)c(C)c1S(=O)(=O)N1CCOCC1`, for which the “activity change, negative = inhibition” value was inactive: -19%.

With `CCn1c(=O)cc(SCC(=O)NCc2ccc(OC)cc2OC)c2ccccc21`, the “activity change, negative = inhibition” value was inactive: -12.3%.

Consider `COc1ccc(CCNC(=O)C(=O)NCC(c2ccco2)S(=O)(=O)c2cccs2)cc1OC` (stereo not drawn), for which the “activity change, negative = inhibition” value is inactive: -16.9%.

Turning to `CCC(=O)N1CCc2cc(S(=O)(=O)NC(CC(C)C)C(=O)NCCc3ccccc3)ccc21` (stereo not drawn), the “activity change, negative = inhibition” value was inactive: -22.1%.

As for `O=C(c1nc(-c2ccc(Cl)cc2)n2c1CCCCC2)N1CCN(c2ccccc2)CC1`, the activity change, negative = inhibition is inactive: -75.9% [at 11.5 µM].

For `O=C(COc1ccccc1-c1nc(-c2ccccc2)no1)Nc1cccc([N+](=O)[O-])c1`, the “activity change, negative = inhibition” value is inactive: -10.4%.

With `OC(CCN1CCCCC1)(c1ccccc1)C1CCCCC1` (stereo not drawn), the “activity change, negative = inhibition” value was inactive: -14.8%.

Take `COc1ccc(NC(=O)c2cc3c([nH]c2=O)CC(c2ccccc2)CC3=O)cc1` (stereo not drawn): the “activity change, negative = inhibition” value is inactive: 4.33%.

Regarding `COc1ccc(NC(=O)Cn2c(=O)n(-c3ccc(CC(=O)NCC4CCCO4)cc3)c(=O)c3ccccc32)c(OC)c1` (stereo not drawn), the “activity change, negative = inhibition” value was inactive: -7.3%.

Regarding `CCCOc1ccc(OC(=O)c2c(-c3ccccc3Cl)noc2C)cc1`, the “activity change, negative = inhibition” value was inactive: -9.9%.

Turning to `COc1ccc(NC(=O)c2ccc3c(c2)c(C)c(C)n3Cc2ccc(F)cc2)c(OC)c1`, the “activity change, negative = inhibition” value is inactive: -26.2%.

In the case of `COc1ccc(C2=Nn3c(nc4sc(C(=O)Nc5cccc(C)c5)c(C)c4c3=O)SC2)cc1`, the “activity change, negative = inhibition” value was inactive: -21.8%.

Consider `COc1ccc(-c2nn3c(-c4ccc(C)cc4)nnc3c3ccccc23)cc1`, for which the “activity change, negative = inhibition” value was inactive: -0.664%.

For `COc1cccc(CN2C(=O)c3ccccc3Sc3ccc(C(=O)NCCc4ccc(Cl)cc4)cc32)c1`, the “activity change, negative = inhibition” value is inactive: -23.6%.

Source of the values: PubChem BioAssay AID1508623 (National Center for Advancing Translational Sciences (NCATS), 2021).
